Measured values reported in PubChem BioAssay AID602393 (Broad Institute, 2012).
Among all 350,000 compounds or so, about 7,000 (2%) were called active. Inconclusive means that the source gave no clear call. Such entries were picked first, then a sample of the others. No stated cut-off is given here; in the data, active means activation above about 40%; inconclusive means no clear call, values can overlap the other calls; inactive means below that.

Experiment: raisers of Bmi1 knock-in reporter signal – mouse ES cells, Bmi1 luciferase knock-in, single point, esBAF inhibitor project, primary screen (AID 602393);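 further: 0% = median of the plate's neutral control wells and 100% = double that signal; a rise in the Bmi1 reporter signal indicates esBAF inhibition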
Conditions: 24 h, at 12.5 µM, stronger effect = higher value, 100% = twice the neutral-well signal
For `Cc1nc(Nc2cccc(O)c2)c2oc3ccccc3c2n1`, the reporter increase was inconclusive: 41.3%. With `C[C@H](CO)N1C[C@H](C)[C@H](CN(C)Cc2ccncc2)Oc2cc(C#CC(C)(C)O)ccc2S1(=O)=O` the reporter increase was inactive: -4.44%. For `CCOc1cccc(/C=C2\NC(=S)N(c3ccccc3)C2=O)c1O`, the reporter increase was inconclusive: 65.5%. With `Cc1ccc(-c2nc3ccccc3[nH]2)cc1NC(=S)NC(=O)c1ccccc1Br` the reporter increase was active: 57.5%. In the case of `CC1CCc2c(sc(NC(=O)C3CCCO3)c2C#N)C1` (centres undefined), the reporter increase is reported as inconclusive: 41.3%. With `COCCNc1oc(-c2ccc(C)cc2)nc1C#N` the reporter increase was active: 65.3%. In the case of `Nc1ccccc1NC(=O)NC(=O)c1ccccc1`, the reporter increase is reported as inconclusive: 28.2%. For `CC(O)(c1ccccc1)c1nc(-c2cc3ccccc3o2)cs1` (centres undefined), the reporter increase was active: 49.3%. For `C[C@@H]1CN([C@@H](C)CO)C(=O)c2cc(NS(=O)(=O)c3cn(C)cn3)ccc2O[C@@H](C)CCCCO[C@H]1CN(C)CC1CC1`, the reporter increase was inactive: -0.496%. In the case of `COc1ccc(NC(=O)CN(C)C(=O)C2(c3ccccc3)CCCC2)cc1`, the reporter increase is reported as active: 55.2%. In the case of `CCCc1ccc2oc(C(=O)N3CCC(O)CC3)c(C)c2c1`, the reporter increase is reported as inconclusive: 45.1%. For `Nc1ccccc1C(=O)NNC(=O)C(=O)/C=C(\O)c1ccccc1`, the reporter increase was inconclusive: 38.3%. In the case of `COC(=O)CCNC(=O)c1ccc2nc(Cc3ccc(OC)c(OC)c3)oc2c1`, the reporter increase is reported as inconclusive: 41.4%. With `C/C(=N/NC(=O)CNc1ccc(C)cc1)c1ccc(Cl)cc1` the reporter increase was inconclusive: 42.9%. For `O=C(O)CCN1C(=O)/C(=C\c2ccc(-c3nc4ccccc4s3)o2)SC1=S`, the reporter increase was inactive: 35.7%. With `Cn1nccc1C(=O)N/N=C/c1ccccc1[N+](=O)[O-]` the reporter increase was inactive: 39.7%. For `COc1ccc(CN(C(=O)CSc2nnc(-c3c[nH]c4ccccc34)o2)c2ccc(F)cc2)cc1OC`, the reporter increase was inconclusive: 43.8%. In the case of `Cc1ccc(Cl)c2c(N=Nc3ccccc3)c(O)[nH]c12`, the reporter increase is reported as active: 57.6%. With `Cc1ccc(N2C(=O)c3ccccc3NC2C(C)Cc2ccc3c(c2)OCO3)cc1` (centres undefined) the reporter increase was active: 52%. For `COC(=O)C1CCN(C(=O)c2cc3ccccc3oc2=O)CC1`, the reporter increase was inconclusive: 43.4%. For `COc1cccc(NC(=O)CSc2ccccn2)c1`, the reporter increase was inconclusive: 40.6%. In the case of `O=C(CSc1nnc(-c2ccccc2Cl)o1)N1CCCC1`, the reporter increase is reported as inconclusive: 44.3%. For `COc1ccccc1-c1cc(C(=O)N2CCOCC2)no1`, the reporter increase was inconclusive: 41.9%. With `Cc1cc(C)c2[nH]c(=S)cc(C)c2c1` the reporter increase was inactive: -2.92%. In the case of `Cc1ccccc1Nc1nc(N)nc(CSc2ccc(F)cc2)n1`, the reporter increase is reported as inconclusive: 45.1%. With `O=c1oc(-c2ccccc2)cc2ccccc12` the reporter increase was active: 77%. With `CCC(=O)N1[C@@H]2c3ccc(C4=CCCCC4)c(=O)n3C[C@@H]2[C@@H](CO)[C@@H]1C(=O)Nc1nccs1` the reporter increase was inactive: 1.52%. With `COc1ccc(/C(N)=N/OC(=O)CC2CCCCC2)cc1` the reporter increase was inconclusive: 40.8%. With `COCCC(=O)N1CCC(Oc2ccc(C(=O)N(C)CCCC3CCCC3)cc2)CC1` the reporter increase was inconclusive: 45.9%. With `Cc1cc(C)cc(NC2=C(N)C(=O)c3ccccc3C2=O)c1` the reporter increase was inconclusive: 58.2%. In the case of `CCOC(=O)N1CCN(C(=O)c2ccc3c(=O)n(Cc4ccc(Cl)cc4)c(=S)[nH]c3c2)CC1`, the reporter increase is reported as inactive: 19.8%. For `COc1ccc(C(=O)Nc2nccs2)cc1OC`, the reporter increase was inconclusive: 56.9%. In the case of `COc1ccc(/C=C/c2nc3ccccc3n2Cc2ccc(OC)c(OC)c2)cc1`, the reporter increase is reported as inconclusive: 41.6%. In the case of `COCC(=O)N(C)C[C@@H]1Oc2cc(C#CCC(C)C)ccc2S(=O)(=O)N([C@@H](C)CO)C[C@H]1C`, the reporter increase is reported as inactive: -5.93%. With `CCc1cccc2c(C(=O)COC(=O)c3ccc(O)cc3)c[nH]c12` the reporter increase was active: 48.9%. In the case of `CC(=O)c1ccc(OCc2cc(C(=O)N(C)C3CCOC3)no2)cc1` (centres undefined), the reporter increase is reported as active: 61.2%. In the case of `CCOc1ccc(N=Cc2ccc(N(C)C)cc2)c(O)c1`, the reporter increase is reported as inconclusive: 42.6%. With `[O-]/[N+](=C\c1ccccc1)c1ccc(Br)cc1` the reporter increase was active: 74.6%. For `COc1ccc(C(=O)O/N=C(\N)c2ccccc2Cl)cc1OC`, the reporter increase was inconclusive: 53.2%. In the case of `Cc1ccc(Cc2c(-c3ccc(Br)cc3)nc3cc(C)ccn23)cc1`, the reporter increase is reported as inconclusive: 44.1%. In the case of `Cc1nc2ccc(NC(=O)CS(=O)(=O)c3ccccc3)cc2s1`, the reporter increase is reported as inconclusive: 51.6%. For `CCC1([N+](=O)[O-])COC(c2ccc(C(C)C)cc2)OC1` (centres undefined), the reporter increase was active: 98.9%. For `C(=N\N1CCN(c2ccccn2)CC1)/c1ccccn1`, the reporter increase was inconclusive: 40.1%. For `CCOC(=O)c1ccc(NC(=O)CSc2nc(SC)ns2)cc1`, the reporter increase was inconclusive: 40%. For `Cc1ccc(S(=O)(=O)N(C)C[C@@H]2OCCCC[C@H](C)Oc3ccc(NC(=O)Cc4ccccc4)cc3C(=O)N([C@@H](C)CO)C[C@H]2C)cc1`, the reporter increase was inactive: 0.799%. In the case of `Cc1cc(C)n2nc(SCc3ccccc3F)nc2n1`, the reporter increase is reported as inconclusive: 43%. For `CCOC(=O)c1cnc2cc(-c3ccc(C)cc3)nn2c1C`, the reporter increase was active: 71.3%. In the case of `COc1ccccc1-n1c(-c2cccnc2)n[nH]c1=S`, the reporter increase is reported as inactive: 12.5%. In the case of `CN(C)c1ccc(N=Nc2cccc3ccoc23)cc1`, the reporter increase is reported as inconclusive: 55.9%. With `CCOc1ccc(C(=O)NCC(=O)OCC(=O)Nc2nnc(-c3ccccc3)o2)cc1` the reporter increase was inactive: -1.68%. For `Nc1nc(-c2cc3ccccc3o2)cs1`, the reporter increase was inconclusive: 30.4%. In the case of `O=C(O)C1CCCN1C(=O)C12CC3CC(CC(C3)C1)C2` (centres undefined), the reporter increase is reported as inactive: -14%. With `Cc1nnc(SCc2cccc(CSc3nnc(C)s3)c2)s1` the reporter increase was inconclusive: 42.6%. In the case of `Cc1ccc(N2CCN(c3ccc(C)cc3)C2c2ccccn2)cc1`, the reporter increase is reported as inconclusive: 56.2%. With `Clc1ccc(Cc2nnc(-c3cccs3)o2)cc1` the reporter increase was inconclusive: 42.8%. In the case of `COc1ccc(NC(=O)CCSc2ccc(F)cc2)cc1`, the reporter increase is reported as inconclusive: 43.9%. With `COC(=O)c1ccc(N2OC3(C)C=CC2CC3)cc1` (centres undefined) the reporter increase was active: 63.4%. With `Cc1ccc2nc(-c3ccc(NC(=O)CN4CCN(C(=O)c5ccco5)CC4)cc3)sc2c1` the reporter increase was inconclusive: 77.3%. In the case of `O=C(NCCc1ccccc1)c1ccc(Cl)c(S(=O)(=O)N2CCCC2)c1`, the reporter increase is reported as active: 58.6%.
